The source gives no read counts; variants with many changes may rest on few reads.
B1: LINE1-full (parent)
chain: UACGUAGGUGGUUUUCCCCUGAUAGUGCUAAGGGGGCCUGGAAGUUUGGACUGGGCAGAGCUCAACACAGCGUGGCAAAGUGGCUGUGGCUAGACUGCCUCUCUGGAUUCCUCGUCACUCAGCAGGGCAUCUCUGAGAGAAAUGCC

Variants of: B1
Assay: self-cleavage, relative activity (ratio to wild type); higher = more cleavage; in vitro, sequencing; the parent is a self-cleaving ribozyme
A64G C76U U87C U104A showed a self-cleavage of 0. U85C U96C C101U gave a self-cleavage of 0.09. U5C G32A G126C A138G showed a self-cleavage of 0.94. A30G U62G U87C U96A showed a self-cleavage of 0. For A2G A59G G105A, the self-cleavage was 0.16. G33A A50G A64U gave a self-cleavage of 0.49. G7U U87C U132A gave a self-cleavage of 0. U20C A59G A64U U130C showed a self-cleavage of 0.15. A77U A92U C99U U112C showed a self-cleavage of 0.16. Variant U20A G33A U62G has a self-cleavage of 0.11. With U5A U14C A50U the self-cleavage was 0.68. Work on U73A G80A C84U C146U yielded a self-cleavage of 0.35. U45C U132C A140C gave a self-cleavage of 1.67. For U47G A50G U109C A121U, the self-cleavage was 0.44. For C3U A24G G80A G83C U132A, the self-cleavage was 1.16. With U13C A22C A64G the self-cleavage was 0. U13A A57U U62A A79G U91C gave a self-cleavage of 0. In the case of A2G A6G U62A A141G, the self-cleavage is reported as 0.13. Work on C16U U112C U115A yielded a self-cleavage of 1.89. U14A U15A U108C showed a self-cleavage of 1.4. U9A C37A A92G U109C showed a self-cleavage of 0.18. For U1A U108C U115C, the self-cleavage was 0. For A31G A64G A141G, the self-cleavage was 0.44. G44A U45G A124G showed a self-cleavage of 1.01. In the case of A65G G75A U81G A140G, the self-cleavage is reported as 0.04. G40U U91C U102A A142G showed a self-cleavage of 0.74. U26C A43G A69G G126A showed a self-cleavage of 0.75. U14C U23C A77G U87C C111A C120A A142G showed a self-cleavage of 0.27. In the case of A22U U85C U112C, the self-cleavage is reported as 0. U15C A65G U132C showed a self-cleavage of 0. Work on U12C U39A U132C yielded a self-cleavage of 1.66. For A50U A57G A69G A138G, the self-cleavage was 0.14. For C3U A57U A59G U100C A124G, the self-cleavage was 0.84. With U45A A121G U132C the self-cleavage was 1.55. With A42G A124G A136G A140G the self-cleavage was 0.37. For U52A A59U A77U, the self-cleavage was 0.11. For A42G A50G C71A A121G U130A U134C A142G, the self-cleavage was 0.16. U20A C38A A42G A94U gave a self-cleavage of 0.31. U13A U73C A78G showed a self-cleavage of 0.81. A69G U91C U119C gave a self-cleavage of 0. In the case of A22U U46C C113U A121G A124G, the self-cleavage is reported as 0.75. For G34U U62A A78U, the self-cleavage was 0.01. Work on U5C U45C U47A A69G U96C yielded a self-cleavage of 0. For U52A A136G A138G U143C, the self-cleavage was 1.95. For U39A A136G A138U, the self-cleavage was 1.95. U96C A121U A141G showed a self-cleavage of 0.15. Variant C123U C128U U134C has a self-cleavage of 1.57. For G4U U13A U45A A79U U112C U143A, the self-cleavage was 1.41. Variant U52C U62C U109C G114U U143C has a self-cleavage of 0.02. U20C U39A U47C A77U U100A showed a self-cleavage of 1.05. Work on A57G A65G U115C yielded a self-cleavage of 0. U14C A65G A117G A138G gave a self-cleavage of 0. In the case of U14C G83C A94G, the self-cleavage is reported as 0.28. G44A A50G A65G G105U gave a self-cleavage of 0.04. U13C U29A A50G A77U A79G U112C G125A showed a self-cleavage of 2.87. Work on A6U U14C G36C yielded a self-cleavage of 1.15. With U13C A50G U109A the self-cleavage was 0.78. In the case of U46A U81C U130C A140G, the self-cleavage is reported as 0.35. With U5C U12C U15A U102C U115A U130C the self-cleavage was 2.3. A42G U47C C99U U100C A121G gave a self-cleavage of 1.31. A30G A43G U47C C56U U87A U132C A140G gave a self-cleavage of 0. U14C U20A G36A C68U U115A U134C gave a self-cleavage of 0.15. U46C G82A A94G A107U U112C U130C U143A gave a self-cleavage of 0.5. U1C U73A A92G U104C gave a self-cleavage of 0.18. G7A U9A U13C A78G A79G gave a self-cleavage of 1.58. In the case of A78G A92G A121U, the self-cleavage is reported as 0. Variant A50U U132C A138C has a self-cleavage of 1.31. In the case of A65G A142G U143C, the self-cleavage is reported as 0.05. U5C U13C U100A gave a self-cleavage of 0.72. Work on A59G C71G A94G U96A yielded a self-cleavage of 0.02. C19U U29A U91C U132A showed a self-cleavage of 0.12. U15C A43U U46C A50G U62C G106U gave a self-cleavage of 0.36. A2G U12G U39C U96A A121U A141G showed a self-cleavage of 0. Work on U20C A50G A59G C68U U85A U100C A124G yielded a self-cleavage of 0.19. In the case of A42U A77C A107U U132C, the self-cleavage is reported as 0.17. For A6G U39A U100C C101U, the self-cleavage was 0.33. Variant U5A U81A C103U U104C has a self-cleavage of 1.74. Variant U9C A65G U73A U108C has a self-cleavage of 0. U26C U46C U52A showed a self-cleavage of 1.72. U102C G114A A138G A140G showed a self-cleavage of 1.17. With G36A A67U U109C the self-cleavage was 0.07. In the case of A2G G34A U112C, the self-cleavage is reported as 1.23. U29C G40A A140G showed a self-cleavage of 0.96. Variant A50G U73C U87A U132C has a self-cleavage of 0. Work on G114A A117G U130C A141G yielded a self-cleavage of 1.49. In the case of A22G U102C G125U, the self-cleavage is reported as 1.34. Variant U62C U115G U119C has a self-cleavage of 0.26. With U12C G35A A69G U81C C131A the self-cleavage was 1.17. U81G U96A U112C U115C gave a self-cleavage of 0.11. Variant A2G U29C U104C has a self-cleavage of 0. In the case of U47A U62C U119A U132C A136G, the self-cleavage is reported as 0. For U29C A30G U91C, the self-cleavage was 0.77. With U20C U23C A107G A124G the self-cleavage was 0. Work on U62A U85C A129U A138G yielded a self-cleavage of 0.15. Work on U39A U45C A117G yielded a self-cleavage of 1.58. U87C G114A A140G gave a self-cleavage of 0.17. In the case of U45C U52C U87A, the self-cleavage is reported as 0.23. U45C U73A A94G gave a self-cleavage of 0.15. With A64C A117C U130C U134C the self-cleavage was 0.54. With U14C C76U A121U A129U the self-cleavage was 1.78. Variant U52C A59U C76U G82A U87C U143C has a self-cleavage of 0.35. For A57G C113U A136G, the self-cleavage was 0.92. Variant G41A C84U U104C has a self-cleavage of 0.12. Work on U9C A50G A121U A124U A141G yielded a self-cleavage of 0.96. With U62C G93A U115C the self-cleavage was 0.02. With C61A A79U A92U C128U A138U the self-cleavage was 0.06. Work on U14C A92U A140G yielded a self-cleavage of 0.47. In the case of C56U A79G A136U, the self-cleavage is reported as 0.35. A31U U96C A142G gave a self-cleavage of 0.14. For A57C U85C A129U, the self-cleavage was 0. U1C U47A A77U A124U showed a self-cleavage of 0.89. Variant A124G U130C A136G has a self-cleavage of 0.71. For A65G U73C A121C, the self-cleavage was 0. Work on A42U U46C A69G yielded a self-cleavage of 0.42. With G8A G32U A107G the self-cleavage was 0.71. U45A U108C U115A showed a self-cleavage of 1.41. Variant U14C G54A U96G A140G U143C has a self-cleavage of 0. With G10A A77U U100A the self-cleavage was 0.89. For A43G A77U A94G A140G, the self-cleavage was 0.21. Work on U26C C99U U100C yielded a self-cleavage of 0.82. In the case of U46C A67U U134A A138U, the self-cleavage is reported as 0.21. U14C G21U U130C gave a self-cleavage of 1.16. Variant U5C U87A G114A U119C has a self-cleavage of 0.11. Variant U13C U39C G70A A124G A136G has a self-cleavage of 0. U14A U47A C116U gave a self-cleavage of 0.97. A65G U115C A136G A138G showed a self-cleavage of 0. In the case of A24U U87C U109C A124G, the self-cleavage is reported as 0. For G60A A67U C145U, the self-cleavage was 0.03. U39A U100C A121U gave a self-cleavage of 1.62. G97A U100A U115C gave a self-cleavage of 0.39. Work on G49A U81C A141G yielded a self-cleavage of 1.16. Work on A30G U104C A140G yielded a self-cleavage of 2.8. With U5G U96G C128U the self-cleavage was 0.42. C19U U62A A67C U87C gave a self-cleavage of 0. A2U A64U A69G A124G showed a self-cleavage of 0.24. Variant C28G U85C U112C A142G has a self-cleavage of 0. Variant A24U A50G A59G A65U U104C A142G has a self-cleavage of 0. With A77G U81C U115C U132A C146U the self-cleavage was 0. For U1A U15C U109A U112A, the self-cleavage was 1.01. In the case of U1C A22G U29C, the self-cleavage is reported as 1.62. Variant U29C A67C A69U has a self-cleavage of 0.04. With U20C A79G G137U the self-cleavage was 0.9. Variant G44A A65G A69G has a self-cleavage of 0.02. For U29C U85A A94G, the self-cleavage was 0.41. With U45C A69G G126A the self-cleavage was 0.41. Variant A69G G74A A124G has a self-cleavage of 0.12. With G89A A92G C113A U115C the self-cleavage was 0.03. For U12G U23C A77G A136G, the self-cleavage was 1.84. Variant A31C C71G U73A has a self-cleavage of 0.09. In the case of U12C G93C G126A, the self-cleavage is reported as 0.03. Work on C61A A65U U81A A92G yielded a self-cleavage of 0.11. A24U G80A U108C gave a self-cleavage of 2. U13C A117U A138U gave a self-cleavage of 1.02. Work on U46A A69G A140G yielded a self-cleavage of 0.39. Variant U9A A64G A107G has a self-cleavage of 0. In the case of G41A A77U G105A, the self-cleavage is reported as 1.17. A6G U52C A121C showed a self-cleavage of 0.63. Work on A57G U87A U100C yielded a self-cleavage of 0. With U26C A31G A65G the self-cleavage was 0.17. With G7C U108C U115A the self-cleavage was 0.95. Work on U96A A121C U143A yielded a self-cleavage of 0.06. With U14C A129G U132A the self-cleavage was 1.84. Work on G7A U14A A42G A79G U143C yielded a self-cleavage of 1.47. In the case of U1C A6U U62C C128U, the self-cleavage is reported as 0.2. Work on A59U A79G C111U U134C yielded a self-cleavage of 0.73. Variant C3U A24G G122A has a self-cleavage of 0.77. Variant U5C C19U U108C has a self-cleavage of 2.09.

— the RNAGym collection of RNA variant scans (doi:10.7554/elife.90254)
